Test results taken from the supplement of paper PMC7826260.
The other results are listed elsewhere or left out. The data describe in vitro nicking of single-stranded DNA by Rep domains (3 µM enzyme, 1 h, 37 °C); shown is the middle of each 90-letter strand. Numbers give uncut DNA relative to the enzyme-free pool, as log2; the lower, the more was cut; hits are not called. Reads are scaled to the total; values above 0 arise when much of the pool is cut.

Experiments:
Test in all cases: uncleaved DNA left, log2 of reads against the no-enzyme library (log2 ratio); higher = less cleavage (more negative = more Rep cleavage of the k-mer); sequences stand for … in CTCGTCCG…ACCGGAGA
[1] = tested on: T1, Rep nickase domain of Muscovy duck circovirus
T1 sequence (Rep 1-111, printed without the tag): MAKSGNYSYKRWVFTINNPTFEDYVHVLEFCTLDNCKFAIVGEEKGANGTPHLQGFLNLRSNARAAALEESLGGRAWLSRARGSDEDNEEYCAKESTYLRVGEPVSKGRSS
Method: (§1)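 A pool of 90-nt single-stranded DNAs with seven random bases just before the constant AC of the nick site (name = the seven bases) was cut by 3 µM recombinant His6-SUMO-tagged Rep nickase domain (300 nM DNA, 50 mM HEPES pH 8.0, 50 mM NaCl, 1 mM MnCl2, 1 h, 37 °C, three replicates). Uncut DNA was amplified and sequenced.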

[2] = tested on: T2, Rep nickase domain of banana bunchy top virus
T2 sequence (Rep 1-94, printed without the tag): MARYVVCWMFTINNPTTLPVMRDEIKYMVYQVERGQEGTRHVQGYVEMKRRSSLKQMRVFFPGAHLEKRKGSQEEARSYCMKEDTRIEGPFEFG
Method: as §1

[3] = tested on: T3, Rep nickase domain of cabbage leaf curl virus
T3 sequence (Rep 1-116, printed without the tag): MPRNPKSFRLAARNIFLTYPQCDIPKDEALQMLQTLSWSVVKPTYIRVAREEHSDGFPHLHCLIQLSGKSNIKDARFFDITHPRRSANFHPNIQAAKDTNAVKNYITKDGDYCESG
Method: as §1

[4] = tested on: T4, Rep nickase domain of chickpea chlorotic dwarf virus
T4 sequence (Rep 1-124, printed without the tag): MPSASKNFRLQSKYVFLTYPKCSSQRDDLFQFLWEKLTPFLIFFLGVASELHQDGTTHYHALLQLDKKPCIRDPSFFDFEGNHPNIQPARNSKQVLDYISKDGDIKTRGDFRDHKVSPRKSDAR
Method: as §1

[5] = tested on: T5, Rep nickase domain of faba bean necrotic yellows virus
T5 sequence (Rep 1-98, printed without the tag): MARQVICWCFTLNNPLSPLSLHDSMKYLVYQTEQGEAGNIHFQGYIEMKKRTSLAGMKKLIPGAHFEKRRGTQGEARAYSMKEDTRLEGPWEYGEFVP
Method: as §1

[6] = tested on: T6, Rep nickase domain of maize striate mosaic virus
T6 sequence (Rep 1-117, printed without the tag): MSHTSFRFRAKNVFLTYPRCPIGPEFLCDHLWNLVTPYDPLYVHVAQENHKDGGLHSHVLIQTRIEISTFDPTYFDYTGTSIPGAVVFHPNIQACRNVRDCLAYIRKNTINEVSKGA
Method: as §1

[7] = tested on: T7, Rep nickase domain of porcine circovirus 2
T7 sequence (Rep 2-116, printed without the tag): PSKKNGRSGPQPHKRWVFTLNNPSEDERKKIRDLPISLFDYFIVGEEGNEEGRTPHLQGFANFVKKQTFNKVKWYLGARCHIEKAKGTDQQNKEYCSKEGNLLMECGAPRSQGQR
Method: as §1

[8] = tested on: T8, Rep nickase domain of tomato golden mosaic virus
T8 sequence (Rep 1-124, printed without the tag): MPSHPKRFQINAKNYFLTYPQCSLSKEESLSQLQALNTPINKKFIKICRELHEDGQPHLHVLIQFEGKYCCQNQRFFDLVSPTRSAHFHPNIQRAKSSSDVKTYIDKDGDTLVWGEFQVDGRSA
Method: as §1

[9] = tested on: T9, Rep nickase domain of tomato yellow leaf curl virus
T9 sequence (Rep 1-136, printed without the tag): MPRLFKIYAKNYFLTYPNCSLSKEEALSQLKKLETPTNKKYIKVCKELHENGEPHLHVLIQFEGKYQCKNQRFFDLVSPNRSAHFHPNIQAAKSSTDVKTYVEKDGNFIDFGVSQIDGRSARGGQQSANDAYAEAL
Method: as §1

[10] = tested on: T10, Rep nickase domain of wheat dwarf virus
T10 sequence (Rep 1-137, printed without the tag): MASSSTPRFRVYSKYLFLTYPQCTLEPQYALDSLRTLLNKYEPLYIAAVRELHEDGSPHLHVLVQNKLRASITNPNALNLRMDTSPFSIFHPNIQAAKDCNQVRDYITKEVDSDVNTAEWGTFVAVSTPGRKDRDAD
Method: as §1

Row | Sequence | uncleaved DNA left (log2) [1] | uncleaved DNA left (log2) [2] | uncleaved DNA left (log2) [3] | uncleaved DNA left (log2) [4] | uncleaved DNA left (log2) [5] | uncleaved DNA left (log2) [6] | uncleaved DNA left (log2) [7] | uncleaved DNA left (log2) [8] | uncleaved DNA left (log2) [9] | uncleaved DNA left (log2) [10]
1 | ATCGCTT | -0.0149 | -0.129 | -0.186 | -1.92 | -0.0623 | -0.585 | -0.058 | -0.0452 | -0.0244 | -0.0666
2 | AGGCTCC | -0.0881 | -0.0957 | 0.197 | 0.528 | -0.0232 | 1.24 | 0.0567 | -0.054 | -0.0117 | 0.00055
3 | AGAGGAA | -0.103 | 0.00319 | 0.195 | 1.32 | -0.127 | 1.48 | 0.113 | 0.079 | -0.193 | -0.0524
4 | CTAAATC | 0.242 | 0.264 | 0.268 | -0.166 | 0.243 | -0.577 | 0.212 | 0.115 | 0.217 | 0.28
5 | TCTGAGC | 0.113 | -0.0548 | -0.101 | -0.0699 | 0.106 | -0.481 | -0.02 | 0.00123 | -0.0667 | 0.0782
6 | AGCAGCC | 0.084 | 0.0406 | 0.00713 | 0.261 | -0.0233 | -0.197 | 0.0799 | 0.0347 | 0.0735 | 0.0931
7 | CCGTTCG | 0.0624 | -0.255 | -0.628 | 0.281 | -0.167 | -0.504 | -0.0718 | -0.12 | -0.0531 | -0.3
8 | CTTTATC | 0.141 | -0.0476 | 0.0556 | 0.0752 | -0.0539 | -0.584 | -0.245 | -0.11 | 0.0679 | 0.0967
